# Results published in the supplement of paper PMC6135742.
# Counter-ions that a name gives are not always drawn. ± gives the standard deviation of the averaged measurements. In all, about 2,600 compounds were measured (“total cell number (DAPI+ nuclei) relative to DMSO vehicle control”: median about -1.4, lowest 2% from about -23 on). This is one part of the list.
# Test system: jimpy (Plp1 jimpy) mouse iPSC-derived oligodendrocyte progenitor cells
# Assay: total cell number (DAPI+ nuclei) relative to DMSO vehicle control (SDs above negative control mean); higher = more surviving cells
# Conditions: 10 µM; 3 days
row,SMILES,total cell number
1,CN1[C@@H]2CC[C@H]1C[C@@H](OC(c1ccccc1)c1ccccc1)C2 [Benztropine mesylate],-3.27 ± 0.14
2,CO/N=C(\C(=O)N[C@@H]1C(=O)N2C(C(=O)O)=C(CSC(=O)c3ccco3)CS[C@H]12)c1csc(N)n1 [Ceftiofur HCl],0.0421
3,C/C(O)=C(\C#N)C(=O)Nc1ccc(C(F)(F)F)cc1 [Teriflunomide],0.229
4,COc1nc(C)cnc1NS(=O)(=O)c1cccnc1-c1ccc(-c2nnco2)cc1 [Zibotentan (ZD4054)],1.39
5,Nc1nccc2c1ncn2C1C=C(CO)C(O)C1O (stereo not drawn) [3-Deazaneplanocin A (DZNeP)],-9.16
6,Cn1cc(/C=C/C(=O)c2cccc(F)c2)cc1/C=C/C(=O)NO,-3.97
7,N[C@@H](CC(=O)N1CCn2c(nnc2C(F)(F)F)C1)Cc1cc(F)c(F)cc1F [Sitagliptin phosphate monohydrate],-1.17
8,Cn1cc(C2=C(c3cn(CCCSC(=N)N)c4ccccc34)C(=O)NC2=O)c2ccccc21 [Ro 31-8220 Mesylate],-15.6
9,C[C@@H]1O[C@@H](O[C@H]2[C@H](Oc3cc(O)c4c(c3)O[C@H](c3ccc(O)cc3)CC4=O)O[C@H](CO)[C@@H](O)[C@@H]2O)[C@H](O)[C@H](O)[C@H]1O [Naringin],-1.39
10,Cc1ccc(C(=O)C(C)CN2CCCCC2)cc1 (stereo not drawn) [Tolperisone HCl],0.936
11,CSc1nc(N)c2ncn([C@@H]3O[C@H](COP(=O)(O)OP(=O)(O)O)[C@H](O)C3O)c2n1 (stereo partly drawn),-2.77
12,"c1ccc(CN2CCC3(CCCc4ccccc43)CC2)cc1 [L-687,384 hydrochloride]",-2.42
13,CNCC[C@@H](Oc1ccccc1C)c1ccccc1 [Tomoxetine],-0.828
14,CNCC[C@@H](Oc1ccccc1C)c1ccccc1 [Atomoxetine HCl],-0.827
15,NS(=O)(=O)C#Cc1ccccc1 [Pifithrin-mu],-3.18
16,Nc1c(S(=O)(=O)O)cc(Nc2ccc(Nc3nc(Cl)nc(Nc4cccc(S(=O)(=O)O)c4)n3)c(S(=O)(=O)O)c2)c2c1C(=O)c1ccccc1C2=O [Reactive Blue 2],-0.98
17,C[C@@H](Oc1cc(-c2cnn(C3CCNCC3)c2)cnc1N)c1c(Cl)ccc(F)c1Cl,-27.1
18,COCCCOc1ccnc(C[S+]([O-])c2nc3ccccc3[nH]2)c1C (stereo not drawn) [Rabeprazole sodium],-0.289
19,O=C(O)Cc1cc(I)c(Oc2ccc(O)c(I)c2)c(I)c1 [Tiratricol],-0.51
20,Cc1cc(Nc2ncc(Cl)c(Nc3ccccc3S(=O)(=O)C(C)C)n2)c(OC(C)C)cc1C1CCNCC1,-16.3
21,CCC(CC)(NC(=O)C(C)C)C(=O)N[C@@H](CCCN=C(N)N)C(=O)NC1(C(=O)NC(c2ccc(F)cc2)c2ccc(F)cc2)CCCC1,-3.11
22,CCN(CC)CCCN(c1ccccc1)C1Cc2ccccc2C1 [Aprindine hydrochloride],-1.55
23,COCCCOc1cc(C[C@@H](C[C@H](N)[C@@H](O)C[C@H](C(=O)NCC(C)(C)C(N)=O)C(C)C)C(C)C)ccc1OC [Aliskiren Hemifumarate],-0.28
24,"O=C(O)Cc1ccc(O)c(O)c1 [3,4-Dihydroxyphenylacetic acid]",-1.97

row,SMILES,total cell number
1,CCCc1nc2c(C)cc(-c3nc4ccccc4n3C)cc2n1Cc1ccc(-c2ccccc2C(=O)O)cc1 [Telmisartan],1.56
2,N=C(N)N1CCc2ccccc2C1 [Debrisoquin sulfate],1.95
3,Cc1ccc(C(=O)N(CCCN)[C@@H](c2nc3cc(Cl)ccc3c(=O)n2Cc2ccccc2)C(C)C)cc1,-27.5
4,CC(=O)/N=c1/sc(S(N)(=O)=O)nn1C [Methazolamide],0.269 ± 2
5,CC1=CC(=O)c2ccccc2C1=O [Menadione],-11.4
6,COc1cc2ncnc(Nc3ccc(F)c(Cl)c3)c2cc1NC(=O)/C=C/CN1CCCCC1,-11.6
7,N=C(N)SCCN [2-(2-Aminoethyl)isothiourea dihydrobromide],-2.29
8,CCCCC1C(=O)N(c2ccccc2)N(c2ccccc2)C1=O [Phenylbutazone],-0.179 ± 1
9,Clc1ccccc1C(c1ccccc1)(c1ccccc1)n1ccnc1 [Clotrimazole],5.25 ± 1
10,NC(=O)NO [Hydroxyurea],-2.26 ± 0.26
11,Clc1ccc(COC(Cn2ccnc2)c2ccc(Cl)cc2Cl)cc1 (stereo not drawn) [Econazole nitrate],-0.691
12,CC(C)=CCC/C(C)=C/COc1ccc2ccc(=O)oc2c1 [Auraptene],-2.06
13,COc1cc(CC(=O)O)ccc1O [4-Hydroxy-3-methoxyphenylacetic acid],-1.87
14,CCOc1ncc(S(=O)(=O)N2CCN(CC)CC2)cc1-c1nc(=O)c2nn(CCOC)c(CC)c2[nH]1 [Gisadenafil besylate salt],-0.843
15,CCCC(C(=O)OCCN(CC)CC)(c1ccccc1)c1ccccc1 [SKF-525A hydrochloride],-5.13
16,CO[C@H]1C(=O)[C@]2(C)[C@@H](OC)C[C@H]3OC[C@@]3(OC(C)=O)[C@H]2[C@H](OC(=O)c2ccccc2)[C@]2(O)C[C@H](OC(=O)[C@H](O)[C@@H](NC(=O)OC(C)(C)C)c3ccccc3)C(C)=C1C2(C)C [Cabazitaxel],-3.98
17,O=S(=O)(O)CCSSCCS(=O)(=O)O [Dimesna],1.49
18,N[C@@H](Cc1ccc(F)cc1)C(=O)O [p-Fluoro-L-phenylalanine],-1.39
19,Nc1nccc2c1ncn2[C@@H]1O[C@H](CO)[C@@H](O)[C@H]1O [3-deazaadenosine],-1.25
20,O=C(Nc1ccc2[nH]ncc2c1)C1CCC1 [Rhodblock 6],-2.58
21,CCCCC#Cc1nc(NC)c2ncn([C@@H]3O[C@H](CO)[C@@H](O)[C@H]3O)c2n1,-1.81
22,Cn1cnc(N)c2ncnc1-2 [3-Methyladenine],0.347
23,CC[C@]1(O)C[C@@H]2CN(CCc3c([nH]c4ccccc34)[C@@](C(=O)OC)(c3cc4c(cc3OC)N(C)[C@H]3[C@@](O)(C(=O)OC)[C@H](OC(C)=O)[C@]5(CC)C=CCN6CC[C@]43[C@@H]65)C2)C1 [Vinblastine],-3.74
24,CC[C@]1(O)C[C@@H]2CN(CCc3c([nH]c4ccccc34)[C@@](C(=O)OC)(c3cc4c(cc3OC)N(C)[C@H]3[C@@](O)(C(=O)OC)[C@H](OC(C)=O)[C@]5(CC)C=CCN6CC[C@]43[C@@H]65)C2)C1 [Vinblastine sulfate salt],-3.37
